In one assay the test system is Coxsackie B1. Nature of the assay: organism not typed. Conditions: read-out: Coxsackie B1 EC50.
For a further assay, the system named is Coxsackie B3. The experiment in a line: microbe, parasite or virus in culture. Particulars: Enterovirus B, B3, read-out: Coxsackie B3 EC50.
The next assay deals with Rhinovirus. The experiment in a line: microbe, parasite or virus in culture. In kind it is cell-based. Particulars: Enterovirus.
[1] abbreviates: HRV14, read-out: Rhino HRV14 EC50.
[2] abbreviates: HRV21, read-out: Rhino HRV21 EC50.
Where [3] appears, read: HRV71, read-out: Rhino HRV71 EC50.

SMILES strings stand for the structures. Converted amounts (≈) assume the structure as drawn. Where two headings read alike, the source gives them in different places.

Regarding `CC(C)c1ccc2c(c1)OC1(O)c3cccc(N)c3C(=O)C21NC=O` (centres unmarked) [Example 166, N-(1-Amino-4b-hydroxy-7-isopropyl-10-oxo-9b,10-dihydro-4bH-indeno[1,2-b]benzofuran-9b-yl)formamide], the EC50 is < 0.01 µg/mL with Coxsackie B1; < 0.01 µg/mL in the assay with Coxsackie B3; < 0.01 µg/mL in the assay on Rhinovirus (setting [1]); < 1 µg/mL in the assay on Rhinovirus (setting [2]); < 1 µg/mL in the assay with Rhinovirus (setting [3]).
On to `CC(=O)NC12C(=O)c3c(NC=O)cccc3C1(O)Oc1cc(C(C)C)ccc12` (centres unmarked) [Example 167, N-(1-Formamido-4b-hydroxy-7-isopropyl-10-oxo-9b,10-dihydro-4bH-benzo[d]-indeno[1,2-b]furan-9b-yl)acetamide], for which the half-maximal effective concentration (EC50) in the assay on Coxsackie B1 is < 0.01 µg/mL; in the assay with Coxsackie B3, 0.034 µg/mL (≈ 0.0894 µM); in the assay on Rhinovirus (setting [1]), 0.038 µg/mL (≈ 0.0999 µM).
With `CC(C)c1ccc2c(c1)OC1(O)c3cccc(N)c3C(=O)C21NC(=O)c1ccc(C#N)cc1` (centres unmarked) [Example 170, N-(1-Amino-4b-hydroxy-7-isopropyl-10-oxo-9b,10-dihydro-4bH-indeno[1,2-b]benzofuran-9b-yl)-4-cyanobenzamide], the EC50 in the assay on Coxsackie B1 was < 0.01 µg/mL; with Coxsackie B3, < 0.01 µg/mL; in the assay on Rhinovirus (setting [1]), < 0.01 µg/mL; with Rhinovirus (setting [2]), < 1 µg/mL; with Rhinovirus (setting [3]), < 1 µg/mL.
Take `CC(C)c1ccc2c(c1)OC1(O)c3cccc(N)c3C(=O)C21NC(=O)c1ccc2ccccc2c1` (centres unmarked) [Example 171, N-(1-Amino-4b-hydroxy-7-isopropyl-10-oxo-9b,10-dihydro-4bH-indeno[1,2-b]benzofuran-9b-yl)-2-naphthamide]: the EC50 in the assay on Coxsackie B1 is < 0.01 µg/mL; in the assay on Coxsackie B3 it was < 0.01 µg/mL; in the assay on Rhinovirus (setting [2]) it was < 1 µg/mL; in the assay with Rhinovirus (setting [3]), < 1 µg/mL.
As to `CC(C)c1ccc2c(c1)OC1(O)c3cccc(N)c3C(=O)C21NC(=O)c1ccc(-c2ccccc2)cc1` (centres unmarked) [Example 172], the concentration for a half-maximal effect (EC50) with Coxsackie B1 was < 0.01 µg/mL; with Coxsackie B3 it was 0.027 µg/mL (≈ 0.055 µM); in the assay on Rhinovirus (setting [1]) it was 0.0125 µg/mL (≈ 0.0255 µM).
As to `CC(C)c1ccc2c(c1)OC1(O)c3cccc(N)c3C(=O)C21NC(=O)C1CCCO1` (centres unmarked) [Example 174, N-(1-Amino-4b-hydroxy-7-isopropyl-10-oxo-9b,10-dihydro-4bH-benzo[d]indeno[1,2-b]furan-9b-yl)tetrahydrofurane-2-carboxamide], the EC50 in the assay on Coxsackie B1, with Coxsackie B3 and in the assay with Rhinovirus (setting [1]) was < 0.01 µg/mL throughout.
`CC(C)c1ccc2c(c1)OC1(O)c3cccc(N)c3C(=O)C21NC(=O)C(F)(F)F` (centres unmarked) [Example 175, N-(1-Amino-4b-hydroxy-7-isopropyl-10-oxo-9b,10-dihydro-4bH-indeno[1,2-b]benzofuran-9b-yl)-2,2,2-trifluoroacetamide]: the EC50 in the assay with Coxsackie B1, with Coxsackie B3 and in the assay with Rhinovirus (setting [1]) was < 0.01 µg/mL each time.
Regarding `CC(C)c1ccc2c(c1)OC1(O)c3ccccc3C(=O)C21NC=O` (centres unmarked) [Example 177, N-(4b-hydroxy-7-isopropyl-10-oxo-9b,10-dihydro-4bH-indeno[1,2-b]benzofuran-9b-yl)formamide], the EC50 in the assay with Coxsackie B1, with Coxsackie B3 and with Rhinovirus (setting [1]) was < 0.01 µg/mL throughout.
As to `CC(C)c1ccc2c(c1)OC1(O)c3cccc(N)c3C(=O)C21NC(=O)Cc1ccccc1` (centres unmarked) [Example 179, N-(1-Amino-4b-hydroxy-7-isopropyl-10-oxo-9b,10-dihydro-4bH-indeno[1,2-b]benzofuran-9b-yl)-2-phenylacetamide], the EC50 in the assay with Coxsackie B1 is < 0.01 µg/mL; in the assay with Coxsackie B3 it was < 0.01 µg/mL; in the assay on Rhinovirus (setting [1]), < 0.01 µg/mL; in the assay with Rhinovirus (setting [2]) it was < 1 µg/mL.
As for `CC(C)c1ccc2c(c1)OC1(O)c3cccc(N)c3C(=O)C21NC(=O)/C=C/c1ccc(Cl)c(Cl)c1` (centres unmarked) [Example 180], the EC50 in the assay with Coxsackie B1 is < 0.01 µg/mL; in the assay on Coxsackie B3, < 0.01 µg/mL; in the assay with Rhinovirus (setting [1]), 0.0114 µg/mL (≈ 0.0224 µM).
On to `CC(C)c1ccc2c(c1)OC1(O)c3cccc(N)c3C(=O)C21NC(=O)c1ccc(OCc2ccccc2)cc1` (centres unmarked) [Example 181, N-(1-Amino-4b-hydroxy-7-isopropyl-10-oxo-9b,10-dihydro-4bH-indeno[1,2-b]benzofuran-9b-yl)-4-(benzyloxy)benzamide], for which the EC50 is < 0.01 µg/mL in the assay with Coxsackie B1, < 0.01 µg/mL with Coxsackie B3 and 0.0124 µg/mL (≈ 0.0238 µM) in the assay on Rhinovirus (setting [1]).
`CC(C)c1ccc2c(c1)OC1(O)c3cccc(N)c3C(=O)C21NC(=O)Cc1ccc(-c2ccccc2)cc1` (centres unmarked) [Example 182, 2-([1,1′-Biphenyl]-4-yl)-N-(1-amino-4b-hydroxy-7-isopropyl-10-oxo-9b,10-dihydro-4bH-indeno[1,2-b]benzofuran-9b-yl)acetamide]: the concentration giving a half-maximal response (EC50) is < 0.01 µg/mL in the assay with Coxsackie B1, 0.022 µg/mL (≈ 0.0436 µM) in the assay on Coxsackie B3 and 0.035 µg/mL (≈ 0.0694 µM) with Rhinovirus (setting [1]).
Take `COc1ccccc1C(=O)NC12C(=O)c3c(N)cccc3C1(O)Oc1cc(C(C)C)ccc12` (centres unmarked) [Example 183, N-(1-Amino-4b-hydroxy-7-isopropyl-10-oxo-9b,10-dihydro-4bH-indeno[1,2-b]benzofuran-9b-yl)-2-methoxybenzamide]: the EC50 in the assay on Coxsackie B1, with Coxsackie B3 and in the assay with Rhinovirus (setting [1]) was < 0.01 µg/mL each time.
With `Cc1ccccc1C(=O)NC12C(=O)c3c(N)cccc3C1(O)Oc1cc(C(C)C)ccc12` (centres unmarked) [Example 186, N-(1-Amino-4b-hydroxy-7-isopropyl-10-oxo-9b,10-dihydro-4bH-benzo[d]indeno[1,2-b]furan-9b-yl)-2-methylbenzamide], the EC50 in the assay with Coxsackie B1, with Coxsackie B3 and in the assay with Rhinovirus (setting [1]) was < 0.01 µg/mL throughout.
For the molecule `Cc1cccc(C(=O)NC23C(=O)c4c(N)cccc4C2(O)Oc2cc(C(C)C)ccc23)c1` (centres unmarked) [Example 187, N-(1-Amino-4b-hydroxy-7-isopropyl-10-oxo-9b,10-dihydro-4bH-benzo[d]indeno[1,2-b]furan-9b-yl)-3-methylbenzamide], the EC50 in the assay on Coxsackie B1 was < 0.01 µg/mL; with Coxsackie B3, < 0.01 µg/mL; with Rhinovirus (setting [1]), < 0.01 µg/mL; with Rhinovirus (setting [2]) it was < 1 µg/mL; in the assay on Rhinovirus (setting [3]) it was < 1 µg/mL.
`Cc1ccc(C(=O)NC23C(=O)c4c(N)cccc4C2(O)Oc2cc(C(C)C)ccc23)cc1` (centres unmarked) [Example 188, N-(1-Amino-4b-hydroxy-7-isopropyl-10-oxo-9b,10-dihydro-4bH-benzo[d]indeno[1,2-b]furan-9b-yl)-4-methylbenzamide]: the EC50 in the assay with Coxsackie B1 is < 0.01 µg/mL; in the assay on Coxsackie B3, < 0.01 µg/mL; with Rhinovirus (setting [1]) it was < 0.01 µg/mL; with Rhinovirus (setting [2]), < 1 µg/mL; in the assay on Rhinovirus (setting [3]) it was < 1 µg/mL.
Take `COC(=O)c1ccc(C(=O)NC23C(=O)c4c(N)cccc4C2(O)Oc2cc(C(C)C)ccc23)cc1` (centres unmarked) [Example 189, Methyl-4-(1-amino-4b-hydroxy-7-isopropyl-10-oxo-9b,10-dihydro-4bH-benzo[d]indeno[1,2-b]furan-9b-ylcarbamoyl)benzoate]: the EC50 is < 0.01 µg/mL with Coxsackie B1; < 0.01 µg/mL in the assay on Coxsackie B3; < 0.01 µg/mL in the assay on Rhinovirus (setting [1]); < 1 µg/mL in the assay on Rhinovirus (setting [2]); < 1 µg/mL in the assay on Rhinovirus (setting [3]).
Turning to `CC(C)c1ccc2c(c1)OC1(O)c3cccc(N)c3C(=O)C21NC(=O)c1cccc(Cl)c1` (centres unmarked) [Example 190, N-(1-Amino-4b-hydroxy-7-isopropyl-10-oxo-9b,10-dihydro-4bH-indeno[1,2-b]benzofuran-9b-yl)-3-chlorobenzamide], the EC50 is < 0.01 µg/mL in the assay on Coxsackie B1; < 0.01 µg/mL in the assay on Coxsackie B3; < 0.01 µg/mL in the assay with Rhinovirus (setting [1]); < 1 µg/mL in the assay on Rhinovirus (setting [2]); < 1 µg/mL with Rhinovirus (setting [3]).
On to `Cc1cc(C)cc(C(=O)NC23C(=O)c4c(N)cccc4C2(O)Oc2cc(C(C)C)ccc23)c1` (centres unmarked) [Example 191, N-(1-Amino-4b-hydroxy-7-isopropyl-10-oxo-9b,10-dihydro-4bH-indeno[1,2-b]benzofuran-9b-yl)-3,5-dimethylbenzamide], for which the EC50 in the assay with Coxsackie B1 was < 0.01 µg/mL; in the assay with Coxsackie B3, < 0.01 µg/mL; in the assay with Rhinovirus (setting [1]), < 0.01 µg/mL; with Rhinovirus (setting [3]) it was < 1 µg/mL.
Regarding `CC(C)c1ccc2c(c1)OC1(O)c3cccc(N)c3C(=O)C21NC(=O)CF` (centres unmarked) [Example 193, N-(1-Amino-4b-hydroxy-7-isopropyl-10-oxo-9b,10-dihydro-4bH-benzo[d]indeno[1,2-b]furan-9b-yl)-2-fluoroacetamide], the EC50 in the assay with Coxsackie B1 was < 0.01 µg/mL; in the assay with Coxsackie B3, < 0.01 µg/mL; with Rhinovirus (setting [1]) it was < 0.01 µg/mL; in the assay with Rhinovirus (setting [2]) it was < 1 µg/mL.
`CC(C)c1ccc2c(c1)OC1(O)c3cccc(N)c3C(=O)C21NC(=O)CCl` (centres unmarked) [Example 194, N-(1-Amino-4b-hydroxy-7-isopropyl-10-oxo-9b,10-dihydro-4bH-benzo[d]indeno[1,2-b]furan-9b-yl)-2-chloroacetamide]: the EC50 in the assay with Coxsackie B1, with Coxsackie B3 and in the assay on Rhinovirus (setting [1]) was < 0.01 µg/mL throughout.
In the case of `CC(C)c1ccc2c(c1)OC1(O)c3cccc(N)c3C(=O)C21NC(=O)c1ccccn1` (centres unmarked) [Example 197, N-(1-Amino-4b-hydroxy-7-isopropyl-10-oxo-9b,10-dihydro-4bH-indeno[1,2-b]benzofuran-9b-yl)picolinamide], the half-maximal effective concentration (EC50) with Coxsackie B1, with Coxsackie B3 and with Rhinovirus (setting [1]) was < 0.01 µg/mL in each case.
With `CC(C)c1ccc2c(c1)OC1(O)c3cccc(N)c3C(=O)C21NC(=O)c1cccnc1` (centres unmarked) [Example 198, N-(1-Amino-4b-hydroxy-7-isopropyl-10-oxo-9b,10-dihydro-4bH-indeno[1,2-b]benzofuran-9b-yl)nicotinamide], the EC50 with Coxsackie B1 is < 0.01 µg/mL; with Coxsackie B3, < 0.01 µg/mL; in the assay on Rhinovirus (setting [1]), < 0.01 µg/mL; with Rhinovirus (setting [2]), < 1 µg/mL; in the assay with Rhinovirus (setting [3]), < 1 µg/mL.
As for `CC(C)c1ccc2c(c1)OC1(O)c3cccc(N)c3C(=O)C21NC(=O)c1ccncc1` (centres unmarked) [Example 199, N-(1-Amino-4b-hydroxy-7-isopropyl-10-oxo-9b,10-dihydro-4bH-indeno[1,2-b]benzofuran-9b-yl)isonicotinamide], the EC50 in the assay with Coxsackie B1 is < 0.01 µg/mL; in the assay with Coxsackie B3 it was < 0.01 µg/mL; in the assay on Rhinovirus (setting [1]), < 0.01 µg/mL; in the assay with Rhinovirus (setting [2]) it was < 1 µg/mL; in the assay on Rhinovirus (setting [3]), < 1 µg/mL.

Values taken from US9890133B2 (priority 2011, dated 2018).
